Paper PMC6218473, “Recognition of host Clr-b by the inhibitory NKR-P1B receptor provides a basis for missing-self recognition” (Nature Communications, 2018)
Where a chain is given by its changes, count along the chain named. Names and notes keep the numbering of the source. These are yes or no findings as the source states them, for the method shown. Some results given as binding are weak or reduced against the parent protein; the word gives no strength.

T1: Clr-b on transfected HEK293T cells (mouse) (UniProt Q91V08)
T1 sequence: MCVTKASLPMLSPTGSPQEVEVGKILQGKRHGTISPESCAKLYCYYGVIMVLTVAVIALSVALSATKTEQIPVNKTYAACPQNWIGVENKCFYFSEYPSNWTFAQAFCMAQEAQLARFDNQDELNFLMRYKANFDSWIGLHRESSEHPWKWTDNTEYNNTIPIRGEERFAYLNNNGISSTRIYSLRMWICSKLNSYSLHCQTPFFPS

B1: NKR-P1B tetramers (biotinylated NKR-P1B on streptavidin) (domain or fragment, UniProt Q99JB4 89-215)
chain: SAKLECPQDWLSHRDKCFHVSQVSNTWKECRIDCDKKGATLLLIQDQEELRFLLDSIKEKYNSFWIGLSYTLTDMNWKWINGTAFNSDVLKITGVTENGSCAAISGEKVTSEGCSSDNRWICQKELN
modifications: biotin on the BirA tag
B2: NKR-P1B N150A mutant tetramer (domain or fragment, UniProt Q99JB4 89-215)
chain: B1 chain with N62A
modifications: biotin on the BirA tag
B3: NKR-P1B N113A mutant tetramer (domain or fragment, UniProt Q99JB4 89-215)
chain: B1 chain with N25A
modifications: biotin on the BirA tag
B4: NKR-P1B V183A mutant tetramer (domain or fragment, UniProt Q99JB4 89-215)
chain: B1 chain with V95A
modifications: biotin on the BirA tag
B5: NKR-P1B Y149A mutant tetramer (domain or fragment, UniProt Q99JB4 89-215)
chain: B1 chain with Y61A
modifications: biotin on the BirA tag
B6: NKR-P1B S188A mutant tetramer (domain or fragment, UniProt Q99JB4 89-215)
chain: B1 chain with S100A
modifications: biotin on the BirA tag
B7: NKR-P1B S199A mutant tetramer (domain or fragment, UniProt Q99JB4 89-215)
chain: B1 chain with S111A
modifications: biotin on the BirA tag
B8: NKR-P1B E200A mutant tetramer (domain or fragment, UniProt Q99JB4 89-215)
chain: B1 chain with E112A
modifications: biotin on the BirA tag
B9: NKR-P1B S203A mutant tetramer (domain or fragment, UniProt Q99JB4 89-215)
chain: B1 chain with S115A
modifications: biotin on the BirA tag
B10: NKR-P1B S204A mutant tetramer (domain or fragment, UniProt Q99JB4 89-215)
chain: B1 chain with S116A
modifications: biotin on the BirA tag
B11: NKR-P1B D205A mutant tetramer (domain or fragment, UniProt Q99JB4 89-215)
chain: B1 chain with D117A
modifications: biotin on the BirA tag
B12: NKR-P1B N206A mutant tetramer (domain or fragment, UniProt Q99JB4 89-215)
chain: B1 chain with N118A
modifications: biotin on the BirA tag
B13: NKR-P1B R207A mutant tetramer (domain or fragment, UniProt Q99JB4 89-215)
chain: B1 chain with R119A
modifications: biotin on the BirA tag
B14: NKR-P1B S204R mutant tetramer (domain or fragment, UniProt Q99JB4 89-215)
chain: B1 chain with S116R
modifications: biotin on the BirA tag
B15: NKR-P1B T184A mutant tetramer (domain or fragment, UniProt Q99JB4 89-215)
chain: B1 chain with T96A
modifications: biotin on the BirA tag

These binders were tested against T1, Clr-b on transfected HEK293T cells (mouse) (assay: flow cytometry on cells; PE-labelled NKR-P1B tetramers on transfected HEK293T or transduced BWZ cells; 1 h on ice in flow buffer (HBSS, 0.5% BSA, 0.03% NaN3); only the binder purified).
With B1 the binding was “binds”.
In the case of B2, the binding is reported as “binds”.
B3 was tested, and the binding was “binds”.
With B4 the binding was “binds”.
In the case of B5, the binding is reported as “binds”.
B6 was tested, and the binding was “no binding”.
B7 was tested, and the binding was “no binding”.
B8 was tested, and the binding was “no binding”.
For B9, the binding was “no binding”.
With B10 the binding was “no binding”.
In the case of B11, the binding is reported as “no binding”.
For B12, the binding was “no binding”.
In the case of B13, the binding is reported as “no binding”.
In the case of B14, the binding is reported as “no binding”.
B15 was tested, and the binding was “no binding”.
